Test results reported in publication PMC4336329 (PLoS ONE, 2015).
Among all 310,000 compounds or so, about 14,000 (4.5%) showed an effect of 50% or more. The effect is printed as a negative number. The list shows a part of the results.

Molecular target: human ether-à-go-go-related gene (hERG) potassium channel (human, UniProt Q12809)
Assay: primary screen, population patch clamp on CHO cells stably expressing hERG
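Further: peak tail current of the secondary pulse compared with the same well before compound.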

human ether-à-go-go-related gene (hERG) potassium channel, sequence (Q12809 whole entry, looked up): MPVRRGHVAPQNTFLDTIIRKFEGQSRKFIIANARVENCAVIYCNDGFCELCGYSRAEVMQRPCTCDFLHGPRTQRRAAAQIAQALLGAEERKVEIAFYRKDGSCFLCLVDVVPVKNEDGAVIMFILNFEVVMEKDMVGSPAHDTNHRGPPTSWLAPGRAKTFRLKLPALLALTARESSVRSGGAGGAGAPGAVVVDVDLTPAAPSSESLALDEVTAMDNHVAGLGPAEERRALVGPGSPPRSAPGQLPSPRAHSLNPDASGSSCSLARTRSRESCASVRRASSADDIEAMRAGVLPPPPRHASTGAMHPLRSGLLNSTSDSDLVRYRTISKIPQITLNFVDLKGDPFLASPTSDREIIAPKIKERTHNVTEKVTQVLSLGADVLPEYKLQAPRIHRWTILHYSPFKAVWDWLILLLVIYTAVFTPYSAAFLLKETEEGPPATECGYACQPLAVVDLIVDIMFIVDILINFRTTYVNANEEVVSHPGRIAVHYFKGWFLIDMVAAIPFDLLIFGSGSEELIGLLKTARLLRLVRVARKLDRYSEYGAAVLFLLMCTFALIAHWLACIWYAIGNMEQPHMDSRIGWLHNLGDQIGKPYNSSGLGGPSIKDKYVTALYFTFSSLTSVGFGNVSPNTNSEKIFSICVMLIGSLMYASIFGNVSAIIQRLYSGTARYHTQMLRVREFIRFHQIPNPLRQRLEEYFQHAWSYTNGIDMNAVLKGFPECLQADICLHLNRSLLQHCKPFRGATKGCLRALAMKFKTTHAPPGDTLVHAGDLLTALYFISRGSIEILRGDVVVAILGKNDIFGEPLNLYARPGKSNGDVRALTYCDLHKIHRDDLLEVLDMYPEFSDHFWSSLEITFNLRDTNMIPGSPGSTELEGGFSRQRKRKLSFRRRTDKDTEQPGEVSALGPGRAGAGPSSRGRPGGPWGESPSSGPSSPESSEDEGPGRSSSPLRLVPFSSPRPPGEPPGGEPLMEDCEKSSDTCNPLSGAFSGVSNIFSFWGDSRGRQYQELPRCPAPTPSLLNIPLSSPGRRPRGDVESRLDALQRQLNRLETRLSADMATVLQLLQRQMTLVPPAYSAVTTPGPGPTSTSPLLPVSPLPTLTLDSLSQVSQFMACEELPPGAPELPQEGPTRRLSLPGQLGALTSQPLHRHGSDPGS

| Structure (SMILES) | hERG current change (%, negative = inhibition) at 10uM [%] |
| --- | --- |
| O=C(c1cn(Cc2ccccc2)nc1-c1ccccc1)N1CCN(c2ccccn2)CC1 | -47.7 |
| CC(C)OS(C)(=O)=O | 13.1 |
| CC(C)OP(=O)(OC(C)C)C(O)c1ccc(N(C)C)cc1 (stereo not drawn) | 16.3 |
| COCC(=O)Nc1nc(-c2ccccc2)c(C)s1 | -8.88 |
| CCc1nnc(NC(=O)C2CCN(c3cnccn3)CC2)s1 | 4.24 |
| COc1ccccc1CNC1CCN(Cc2ccccc2)CC1 | -3.89 |
| O=P(c1ccccc1)(c1ccccc1)c1cc(Br)cc(Br)c1OCCO | -49 |
| CCOCCOC(=O)c1cccc(NC(=O)OCC)c1 | -1.07 |
| CCc1ccc(Nc2cc(=O)n(C3CCCCC3)c(=O)[nH]2)cc1 | 7.41 |
| Cc1ccc(-c2nnc(N3CCN(C(=O)CSc4ncn[nH]4)CC3)c3ccccc23)cc1 | -32.6 |
| O=S(=O)(/N=C(/Nc1ccccc1)C(F)(F)F)c1ccccc1 | -20.7 |
| CCCCc1cc(=O)oc2cc(OC(C)C(=O)NCCN3CCOCC3)c(Cl)cc12 (stereo not drawn) | -19.1 |
| CC1CCCCN1C(=O)CNCC1CCCO1.O=C(O)C(=O)O (stereo not drawn) | 29.3 |
| COc1ccc(S(=O)(=O)NC2CC(C)(C)NC(C)(C)C2)c2ccccc12 | 6.47 |
| CCOC(=O)c1[nH]c2ccc(OC)cc2c1NC(=O)c1nonc1C | 6.27 |
| O=C(NC(=S)Nc1cccc(F)c1)c1cccc([N+](=O)[O-])c1 | 20.6 |
| CC(NS(=O)(=O)c1ccccc1)C(=O)Nc1ccc2c(c1)OCCO2 (stereo not drawn) | 1.18 |
| Cc1ccccc1NC(=O)/C(=C/c1cccs1)NC(=O)c1ccco1 | -2.24 |
| Cc1ccccc1C(=O)N1CCN(c2ccc(NC(=O)c3ccc4c(c3)OCCO4)cc2)CC1 | 4.42 |
| O=C(OCn1ncc(Cl)c(Cl)c1=O)c1cccc(C(F)(F)F)c1 | 1.49 |
| CCOC(=O)c1c(NC(=O)CSc2nnnn2C)sc(C(=O)N(C)C)c1C | -1.83 |
| CCC1Sc2ccc(S(=O)(=O)CCC(=O)Nc3ccccc3Br)cc2NC1=O (stereo not drawn) | 4.06 |
| CC(C)(C)OC(=O)NCCCC1=CC2=CC(=O)C(C)(O)C(=O)C2=CO1 (stereo not drawn) | 8.95 |

| Structure (SMILES) | hERG current change (%, negative = inhibition) at 10uM [%] |
| --- | --- |
| CCC(=O)Nc1cccc(C2=NN(c3ccccc3)C(c3ccc(OC)cc3)C2)c1 (stereo not drawn) | 11.6 |
| CCn1cc(/C=C/C(=O)Nc2ccc(C)cc2Br)cn1 | -30.7 |
| Br.O=C(Cn1c(NCCO)nc2ccccc21)c1ccc(Cl)cc1 | -2.55 |
| O=C(CCc1ccc(Oc2cc([N+](=O)[O-])cc([N+](=O)[O-])c2)cc1)N1CCCCC1 | -49.3 |
| S=C1NCCOCCNC(=S)NCCOCCOCCN1 | 22.2 |
| CC1(OC(=O)C2CCCC2)C(=O)C=C2C=C(c3ccsc3)N(CCc3c[nH]c4ccccc34)C=C2C1=O (stereo not drawn) | -11.2 |
| Cc1ccc(C2CC(=O)NC(SCC(=O)OCc3ccccc3)=C2C#N)o1 (stereo not drawn) | 4.21 |
| O=S1(=O)CCOCCCN1Cc1cccc(C(F)(F)F)c1 | 9.82 |
| CCOC(=O)c1c(C)cccc1OCC(N)=O | 8.49 |
| CC1(C(=O)Nc2nc3ccc(S(C)(=O)=O)cc3s2)CC1(Cl)Cl (stereo not drawn) | 3.25 |
| Cc1nnc(SCC(=O)N2CCc3ccccc3C2)s1 | 9.88 |
| COc1ccc(/C=N/NC(=O)c2nonc2C)cc1 | -4.8 |
| CCOc1ccc(Nc2cc(=O)oc3ccccc23)cc1 | 7.78 |
| CCn1c(SCC(=O)N2CCOCC2)nnc1-c1cccs1 | 10.8 |
| CC(C)c1ccc(NC(=O)CSc2nc3ccccc3nc2N2CCCC2)cc1 | -10 |
| COc1ccc(-c2ccnc3nc(/N=C/N(C)C)nn23)cc1 | 26.6 |
| COc1ccccc1-n1cnnc1SCC(=O)NC1CCCCC1 | 15.6 |
| c1ccc(-n2ncc3c(NCc4cccnc4)ncnc32)cc1 | -46 |
| O=C(O)CCC(=O)Nc1ccc(C(=O)OCC(=O)c2ccc(Cl)cc2)cc1 | 15.9 |
| O=c1[nH]nc(Cc2ccc(-c3ccc(Cl)cc3)o2)c2ccccc12 | 5.52 |
| Cc1ccc(C)c(N2CCN(C(=O)c3ccc(NC4=NC5CS(=O)(=O)CC5S4)cc3)CC2)c1 (stereo not drawn) | 2.89 |
| Cc1ccc(N=Nc2c(O)[nH]c3ccc(F)cc23)cc1 | 12.6 |
| CCOc1ccc(-c2nc(-c3cccnc3)no2)cc1OCC | 0.74 |

| Structure (SMILES) | hERG current change (%, negative = inhibition) at 10uM [%] |
| --- | --- |
| CCCCCCCCNC(=O)c1cnccn1 | -7.1 |
| Cc1ccc(NC(=O)CSc2nnc3n2CCCCC3)cc1 | -4.15 |
| Cc1ccc(/C=N/Nc2nncc(-c3ccccc3)n2)o1 | 4.83 |
| CC(C)(C)C(=O)NC1CCN(S(C)(=O)=O)CC1 | 3.06 |
| CCOC(=O)C1=NN(c2ccc(F)cc2)C2=NC(C)=C(C(=O)OC)C(c3cccs3)N12 (stereo not drawn) | -2.17 |
| C[C@H]1CCC(=O)N([C@H](COc2ccccc2)Cc2ccccc2)CC1 | -42.7 |
| O=C(c1ccco1)N1CCN(CC(=O)N2CCCc3c2c(=O)oc2ccc(O)cc32)CC1 | -5.14 |
| CCn1c(/C=C/c2ccccc2)nc2ccccc2c1=O | 3.96 |
| Cc1ccc(CS(=O)(=O)c2cn(CC(=O)Nc3ccon3)c3ccccc23)cc1 | 8.95 |
| O=C(Nc1cccc(Cl)c1)N1CCN(C2c3ccccc3-c3ccccc32)CC1 | 3.52 |
| Cn1c(SCC(=O)Nc2sc3c(c2C#N)CCC3)nnc1C1COc2ccccc2O1 (stereo not drawn) | -2.94 |
| CN(C)/C(=N\O)c1c(Cl)cccc1Cl | 14 |
| CC(=O)NC(=S)Nc1ccc(NC(=O)c2cccnc2Cl)cc1 | -0.499 |
| CCOC(=O)N1CCC(NC(=O)CS(=O)(=O)Cc2nc(-c3cccc(Cl)c3)oc2C)CC1 | -18.3 |
| O=C(COc1ccccc1C(=O)N/N=C\c1ccc(O)c(O)c1)N/N=C/c1ccc(O)c(O)c1 | -1.33 |
| Cc1ccc(SCC(=O)N2CCc3ccccc32)cc1 | 7.96 |
| COCCNC(=O)C(c1ccc(C)cc1)N(Cc1ccco1)C(=O)CCC(=O)Nc1ccccn1 (stereo not drawn) | 11.6 |
| O=C(CSc1ncnc2nc[nH]c12)Nc1ccc(Br)cc1Cl | -0.422 |
| Cc1ccc(C(=O)NNC(=O)c2ccccc2-n2cccc2)cc1 | 19.8 |
| COc1ccccc1NC(=O)Nc1ccc(S(=O)(=O)Nc2onc(C)c2C)cc1 | 12.7 |
| CCOc1ccc(-c2noc(CCC(=O)NCC3CCCO3)n2)cc1OC (stereo not drawn) | 0.963 |
| CCOC(=O)C1CCN(C(=O)COC(=O)c2nn(C)c(=O)c3ccccc23)CC1 | -18.8 |
| C=CCOC(=O)CSCC(NC(=O)OC(C)(C)C)C(=O)OCC (stereo not drawn) | -0.265 |

| Structure (SMILES) | hERG current change (%, negative = inhibition) at 10uM [%] |
| --- | --- |
| FC(F)(F)c1cccc(Cc2noc(CN3CCCC3)n2)c1 | 15.6 |
| CCCCOCCCNC(=O)c1ccc(OCC)cc1 | -13.8 |
| O=C1N/C(=N/Nc2ccccc2)S/C1=C\c1ccccc1 | -1.16 |
| COc1ccc(CCNS(=O)(=O)c2ccc3oc(C(=O)O)c(C)c3c2)cc1OC | 0.0936 |
| COC(=O)c1nnn(-c2ccc(Cl)c(Cl)c2)c1C(=O)OC | 4.96 |
| COCCN(CCOC)c1nc(-c2ccc(Cl)cc2)nc2ccccc12 | -5.82 |
| O=c1c2ccccc2oc2ccc(Oc3ccccc3)cc12 | 11.3 |
| C=CCOc1c(Br)cc(/C=N/NC(=O)Cc2ccc(C(F)(F)F)cc2[N+](=O)[O-])cc1OC | 21.1 |
| O=C(c1cccc(OCc2ccccc2)c1)N1CCOCC1 | -5.23 |
| Cc1ccc(N(CC(=O)Nc2ccccc2C(=O)N2CCOCC2)S(C)(=O)=O)cc1 | 10.5 |
| COc1ccccc1CCNC(=O)c1ccc(NC(=O)CC2SC(N3CCCCC3)=NC2=O)cc1 (stereo not drawn) | 8.03 |
| COc1ccc(C2CC(c3cccs3)=NN2C(=O)COC(=O)C2CCCCC2)cc1OC (stereo not drawn) | -18.1 |
| Cn1nnc2cc(C(=O)NC3CCCCC3)ccc21 | -6.61 |
| NC(=[NH2+])SCC1=CCS(=O)(=O)C1.[Br-] | 17.4 |
| O=C1Cc2cc(S(=O)(=O)N3CCN(c4ccccc4)CC3)ccc2N1 | 14.1 |
| CC(=O)Nc1ccc(S(=O)(=O)NCc2nc(-c3cccc(C)c3)no2)cc1 | -0.261 |
| CNC(C)C#Cc1ccc2oc3cccc(OC)c3c(=O)c2c1 (stereo not drawn) | -27 |
| Cc1occc1C(=O)N1CCCC(Nc2ccc(F)c(F)c2)C1 (stereo not drawn) | -5.18 |
| O=C(COc1ccccc1Br)NCc1ccccn1 | -10.1 |
| CCOC(=O)CNC(=O)C12CC3CC(CC(C3)C1)C2 | 26.7 |
| Nc1nc(N)c2nc(CNc3ccc(C(=O)NC(CCC(=O)O)C(=O)O)cc3)cnc2n1 (stereo not drawn) | 3.03 |
